The values below come from the supplement of paper PMC11876631.

± gives the standard deviation of the averaged measurements. Laboratory Escherichia coli strains with one amino-acid change in an essential protein, pooled on minimal glucose agar with carbenicillin or gentamicin at twice the control MIC (plus kanamycin and chloramphenicol for the plasmids), 48 h. Fold change of barcode share against drug-free plates; higher = less susceptible. Active = above 20 in both replicates (the paper's putatively resistant). '<' = one read or none on drug, '>' = one read or none on a drug-free plate. Shares are relative, so most strains fall below 1 when a few take over. Listed are strains with at least 15 reads on both drug-free plates, and hits; most hits rest on fewer reference reads. Replicate rank correlation about 0.5. Edits are read from barcodes.

The data set concerns the target Escherichia coli (laboratory strain). In words: barcode share on antibiotic plates over drug-free plates; higher = less susceptible. As to the method:
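A pool of E. coli strains, each edited to carry one amino-acid change in an essential protein, was grown for 48 h on minimal glucose agar with or without antibiotic; strain barcodes were sequenced; mean of two replicates.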

Setting [1] is: antibiotic: carbenicillin, 2× MIC (3.1 µg/mL).
Setting [2] is: antibiotic: gentamicin, 2× MIC (MIC 0.45 µg/mL).

B1: thrS I218Q (protein)
chain: MPVITLPDGSQRHYDHAVSPMDVALDIGPGLAKACIAGRVNGELVDACDLIENDAQLSIITAKDEEGLEIIRHSCAHLLGHAIKQLWPHTKMAIGPVIDNGFYYDVDLDRTLTQEDVEALEKRMHELAEKNYDVIKKKVSWHEARETFANRGESYKVSILDENIAHDDKPGLYFHEEYVDMCRGPHVPNMRFCHHFKLMKTAGAYWRGDSNNKMLQRQYGTAWADKKALNAYLQRLEEAAKRDHRKIGKQLDLYHMQEEAPGMVFWHNDGWTIFRELEVFVRSKLKEYQYQEVKGPFMMDRVLWEKTGHWDNYKDAMFTTSSENREYCIKPMNCPGHVQIFNQGLKSYRDLPLRMAEFGSCHRNEPSGSLHGLMRVRGFTQDDAHIFCTEEQIRDEVNGCIRLVYDMYSTFGFEKIVVKLSTRPEKRIGSDEMWDRAEADLAVALEENNIPFEYQLGEGAFYGPKIEFTLYDCLDRAWQCGTVQLDFSLPSRLSASYVGEDNERKVPVMIHRAILGSMERFIGILTEEFAGFFPTWLAPVQVVIMNITDSQSEYVNELTQKLSNAGIRVKADLRNEKIGFKIREHTLRRVPYMLVCGDKEVESGKVAVRTRRGKDLGSMDVNEVIEKLQQEIRSRSLKQLEE
B1: the “fold change of barcode share” value by setting is: under setting [1], 0.917 ± 0.51; under setting [2], less than 0.0106.

B2: tilS L28A (protein)
chain: MTLTLNRQLLTSRQILVAFSGGLDSTVALHQLVQWRTENPGVALRAIHVHHGLSANADAWVTHCENVCQQWQVPLVVERVQLAQEGLGIEAQARQARYQAFARTLLPGEVLVTAQHLDDQCETFLLALKRGSGPAGLSAMAEVSEFAGTRLIRPLLARTRGELVQWARQYDLRWIEDESNQDDSYDRNFLRLRVVPLLQQRWPHFAEATARSAALCAEQESLLDELLADDLAHCQSPQGTLQIVPMLAMSDARRAAIIRRWLAGQNAPMPSRDALVRIWQEVALAREDASPCLRLGAFEIRRYQSQLWWIKSVTGQSENIVPWQTWLQPLELPAGLGSVQLNAGGDIRPPRADEAVSVRFKAPGLLHIVGRNGGRKLKKIWQELGVPPWLRDTTPLLFYGETLIAAAGVFVTQEGVAEGENGVSFVWQKTLS
As to B2, the “fold change of barcode share” value was 0.31 ± 0.066 under setting [1] and less than 0.00694 under setting [2].

B3: tilS V27Q (protein)
chain: MTLTLNRQLLTSRQILVAFSGGLDSTQLLHQLVQWRTENPGVALRAIHVHHGLSANADAWVTHCENVCQQWQVPLVVERVQLAQEGLGIEAQARQARYQAFARTLLPGEVLVTAQHLDDQCETFLLALKRGSGPAGLSAMAEVSEFAGTRLIRPLLARTRGELVQWARQYDLRWIEDESNQDDSYDRNFLRLRVVPLLQQRWPHFAEATARSAALCAEQESLLDELLADDLAHCQSPQGTLQIVPMLAMSDARRAAIIRRWLAGQNAPMPSRDALVRIWQEVALAREDASPCLRLGAFEIRRYQSQLWWIKSVTGQSENIVPWQTWLQPLELPAGLGSVQLNAGGDIRPPRADEAVSVRFKAPGLLHIVGRNGGRKLKKIWQELGVPPWLRDTTPLLFYGETLIAAAGVFVTQEGVAEGENGVSFVWQKTLS
Consider B3, for which the “fold change of barcode share” value reads like this: under setting [1], 0.3591 ± 0.0011; under setting [2], less than 0.0159.

B4: tilS L111Q (protein)
chain: MTLTLNRQLLTSRQILVAFSGGLDSTVLLHQLVQWRTENPGVALRAIHVHHGLSANADAWVTHCENVCQQWQVPLVVERVQLAQEGLGIEAQARQARYQAFARTLLPGEVQVTAQHLDDQCETFLLALKRGSGPAGLSAMAEVSEFAGTRLIRPLLARTRGELVQWARQYDLRWIEDESNQDDSYDRNFLRLRVVPLLQQRWPHFAEATARSAALCAEQESLLDELLADDLAHCQSPQGTLQIVPMLAMSDARRAAIIRRWLAGQNAPMPSRDALVRIWQEVALAREDASPCLRLGAFEIRRYQSQLWWIKSVTGQSENIVPWQTWLQPLELPAGLGSVQLNAGGDIRPPRADEAVSVRFKAPGLLHIVGRNGGRKLKKIWQELGVPPWLRDTTPLLFYGETLIAAAGVFVTQEGVAEGENGVSFVWQKTLS
With B4, the “fold change of barcode share” value worked out at 0.225 ± 0.093 under setting [1] and 0.0514 ± 0.052 under setting [2].

B5: tilS V27A (protein)
chain: MTLTLNRQLLTSRQILVAFSGGLDSTALLHQLVQWRTENPGVALRAIHVHHGLSANADAWVTHCENVCQQWQVPLVVERVQLAQEGLGIEAQARQARYQAFARTLLPGEVLVTAQHLDDQCETFLLALKRGSGPAGLSAMAEVSEFAGTRLIRPLLARTRGELVQWARQYDLRWIEDESNQDDSYDRNFLRLRVVPLLQQRWPHFAEATARSAALCAEQESLLDELLADDLAHCQSPQGTLQIVPMLAMSDARRAAIIRRWLAGQNAPMPSRDALVRIWQEVALAREDASPCLRLGAFEIRRYQSQLWWIKSVTGQSENIVPWQTWLQPLELPAGLGSVQLNAGGDIRPPRADEAVSVRFKAPGLLHIVGRNGGRKLKKIWQELGVPPWLRDTTPLLFYGETLIAAAGVFVTQEGVAEGENGVSFVWQKTLS
Regarding B5, the “fold change of barcode share” value is 0.214 ± 0.037 under setting [1] and less than 0.011 under setting [2].

B6: tilS L28Q (protein)
chain: MTLTLNRQLLTSRQILVAFSGGLDSTVQLHQLVQWRTENPGVALRAIHVHHGLSANADAWVTHCENVCQQWQVPLVVERVQLAQEGLGIEAQARQARYQAFARTLLPGEVLVTAQHLDDQCETFLLALKRGSGPAGLSAMAEVSEFAGTRLIRPLLARTRGELVQWARQYDLRWIEDESNQDDSYDRNFLRLRVVPLLQQRWPHFAEATARSAALCAEQESLLDELLADDLAHCQSPQGTLQIVPMLAMSDARRAAIIRRWLAGQNAPMPSRDALVRIWQEVALAREDASPCLRLGAFEIRRYQSQLWWIKSVTGQSENIVPWQTWLQPLELPAGLGSVQLNAGGDIRPPRADEAVSVRFKAPGLLHIVGRNGGRKLKKIWQELGVPPWLRDTTPLLFYGETLIAAAGVFVTQEGVAEGENGVSFVWQKTLS
As to B6, the “fold change of barcode share” value was 0.3 ± 0.039 under setting [1] and less than 0.0096 under setting [2].

B7: tilS L28W (protein)
chain: MTLTLNRQLLTSRQILVAFSGGLDSTVWLHQLVQWRTENPGVALRAIHVHHGLSANADAWVTHCENVCQQWQVPLVVERVQLAQEGLGIEAQARQARYQAFARTLLPGEVLVTAQHLDDQCETFLLALKRGSGPAGLSAMAEVSEFAGTRLIRPLLARTRGELVQWARQYDLRWIEDESNQDDSYDRNFLRLRVVPLLQQRWPHFAEATARSAALCAEQESLLDELLADDLAHCQSPQGTLQIVPMLAMSDARRAAIIRRWLAGQNAPMPSRDALVRIWQEVALAREDASPCLRLGAFEIRRYQSQLWWIKSVTGQSENIVPWQTWLQPLELPAGLGSVQLNAGGDIRPPRADEAVSVRFKAPGLLHIVGRNGGRKLKKIWQELGVPPWLRDTTPLLFYGETLIAAAGVFVTQEGVAEGENGVSFVWQKTLS
Take B7: the “fold change of barcode share” value under setting [1] was 0.37 ± 0.11.

B8: tilS I152W (protein)
chain: MTLTLNRQLLTSRQILVAFSGGLDSTVLLHQLVQWRTENPGVALRAIHVHHGLSANADAWVTHCENVCQQWQVPLVVERVQLAQEGLGIEAQARQARYQAFARTLLPGEVLVTAQHLDDQCETFLLALKRGSGPAGLSAMAEVSEFAGTRLWRPLLARTRGELVQWARQYDLRWIEDESNQDDSYDRNFLRLRVVPLLQQRWPHFAEATARSAALCAEQESLLDELLADDLAHCQSPQGTLQIVPMLAMSDARRAAIIRRWLAGQNAPMPSRDALVRIWQEVALAREDASPCLRLGAFEIRRYQSQLWWIKSVTGQSENIVPWQTWLQPLELPAGLGSVQLNAGGDIRPPRADEAVSVRFKAPGLLHIVGRNGGRKLKKIWQELGVPPWLRDTTPLLFYGETLIAAAGVFVTQEGVAEGENGVSFVWQKTLS
With B8, the “fold change of barcode share” value reads like this: under setting [1], 0.248 ± 0.033; under setting [2], 0.00249 ± 0.0016.

B9: tilS I152A (protein)
chain: MTLTLNRQLLTSRQILVAFSGGLDSTVLLHQLVQWRTENPGVALRAIHVHHGLSANADAWVTHCENVCQQWQVPLVVERVQLAQEGLGIEAQARQARYQAFARTLLPGEVLVTAQHLDDQCETFLLALKRGSGPAGLSAMAEVSEFAGTRLARPLLARTRGELVQWARQYDLRWIEDESNQDDSYDRNFLRLRVVPLLQQRWPHFAEATARSAALCAEQESLLDELLADDLAHCQSPQGTLQIVPMLAMSDARRAAIIRRWLAGQNAPMPSRDALVRIWQEVALAREDASPCLRLGAFEIRRYQSQLWWIKSVTGQSENIVPWQTWLQPLELPAGLGSVQLNAGGDIRPPRADEAVSVRFKAPGLLHIVGRNGGRKLKKIWQELGVPPWLRDTTPLLFYGETLIAAAGVFVTQEGVAEGENGVSFVWQKTLS
For B9, the “fold change of barcode share” value by setting is: under setting [1], 0.303 ± 0.065; under setting [2], 0.0116 ± 0.014.

B10: tilS L29A (protein)
chain: MTLTLNRQLLTSRQILVAFSGGLDSTVLAHQLVQWRTENPGVALRAIHVHHGLSANADAWVTHCENVCQQWQVPLVVERVQLAQEGLGIEAQARQARYQAFARTLLPGEVLVTAQHLDDQCETFLLALKRGSGPAGLSAMAEVSEFAGTRLIRPLLARTRGELVQWARQYDLRWIEDESNQDDSYDRNFLRLRVVPLLQQRWPHFAEATARSAALCAEQESLLDELLADDLAHCQSPQGTLQIVPMLAMSDARRAAIIRRWLAGQNAPMPSRDALVRIWQEVALAREDASPCLRLGAFEIRRYQSQLWWIKSVTGQSENIVPWQTWLQPLELPAGLGSVQLNAGGDIRPPRADEAVSVRFKAPGLLHIVGRNGGRKLKKIWQELGVPPWLRDTTPLLFYGETLIAAAGVFVTQEGVAEGENGVSFVWQKTLS
As to B10, the “fold change of barcode share” value is 0.35 ± 0.12 under setting [1] and less than 0.00451 under setting [2].

B11: tilS L29Q (protein)
chain: MTLTLNRQLLTSRQILVAFSGGLDSTVLQHQLVQWRTENPGVALRAIHVHHGLSANADAWVTHCENVCQQWQVPLVVERVQLAQEGLGIEAQARQARYQAFARTLLPGEVLVTAQHLDDQCETFLLALKRGSGPAGLSAMAEVSEFAGTRLIRPLLARTRGELVQWARQYDLRWIEDESNQDDSYDRNFLRLRVVPLLQQRWPHFAEATARSAALCAEQESLLDELLADDLAHCQSPQGTLQIVPMLAMSDARRAAIIRRWLAGQNAPMPSRDALVRIWQEVALAREDASPCLRLGAFEIRRYQSQLWWIKSVTGQSENIVPWQTWLQPLELPAGLGSVQLNAGGDIRPPRADEAVSVRFKAPGLLHIVGRNGGRKLKKIWQELGVPPWLRDTTPLLFYGETLIAAAGVFVTQEGVAEGENGVSFVWQKTLS
B11: the “fold change of barcode share” value came out at 0.447 ± 0.14 under setting [1] and 0.0102 ± 0.0054 under setting [2].
